Experiment [1] deals with T1, IL-7 receptor (IL-7R alpha chain and common gamma chain) on human T cells (human, UniProt P16871 21-459; P31785 23-369).
T1 sequence (looked up) 1: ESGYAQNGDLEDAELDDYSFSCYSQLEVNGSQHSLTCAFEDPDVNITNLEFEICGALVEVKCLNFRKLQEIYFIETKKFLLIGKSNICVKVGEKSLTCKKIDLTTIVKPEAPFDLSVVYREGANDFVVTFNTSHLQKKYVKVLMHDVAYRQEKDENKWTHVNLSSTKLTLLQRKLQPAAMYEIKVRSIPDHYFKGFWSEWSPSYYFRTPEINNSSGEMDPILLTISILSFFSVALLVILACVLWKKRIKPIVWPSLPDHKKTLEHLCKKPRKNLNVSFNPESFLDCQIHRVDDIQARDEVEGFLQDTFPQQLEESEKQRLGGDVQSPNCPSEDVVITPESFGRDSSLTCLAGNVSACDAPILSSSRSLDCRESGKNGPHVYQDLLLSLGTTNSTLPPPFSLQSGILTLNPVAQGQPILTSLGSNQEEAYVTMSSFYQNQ
T1 sequence (looked up) 2: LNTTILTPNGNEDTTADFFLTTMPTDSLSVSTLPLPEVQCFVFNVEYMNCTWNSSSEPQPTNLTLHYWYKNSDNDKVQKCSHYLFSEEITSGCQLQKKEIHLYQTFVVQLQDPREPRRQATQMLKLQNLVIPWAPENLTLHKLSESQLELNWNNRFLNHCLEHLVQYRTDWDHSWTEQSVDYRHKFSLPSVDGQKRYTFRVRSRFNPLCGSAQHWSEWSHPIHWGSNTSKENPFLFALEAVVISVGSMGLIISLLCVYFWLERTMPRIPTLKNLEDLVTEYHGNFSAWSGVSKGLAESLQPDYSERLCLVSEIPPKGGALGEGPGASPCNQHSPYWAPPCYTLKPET
As to the kind of experiment: cell-based or functional assay.

The target of experiment [2] is T2, human PD-1 on activated CD4 T cells (human, UniProt Q15116 25-288). As to the kind of experiment: cell-based or functional assay.
The target of experiment [3] is T1, IL-7 receptor (IL-7R alpha chain and …). As to the kind of experiment: cell-based or functional assay. The source holds these as a separate data set.
The target of experiment [4] is T2, human PD-1 on activated CD4 T cells. As to the kind of experiment: cell-based or functional assay. This is another data set of the same source.
In experiment [5] the target is T1, IL-7 receptor (IL-7R alpha chain and …). As to the kind of experiment: cell-based or functional assay. The source holds these as a separate data set.
Experiment [6] has as its target T3, human huPD1-ECD_Fc (P1AD9704) (human, UniProt Q15116 partial chain).
T3 construct: extracellular domain; In-house reagent; not shown: Fc part
The experiment is described as follows: SPR Biacore T200, sample captured by anti-PGLALA, huPD1-ECD-Fc injected; sample stressed 2 w/pH 7.4 +37°C. (In SPR one partner is held on a chip, and binding of the other changes the refractive index at the surface.)

Experiment [7] concerns the target T3, human huPD1-ECD_Fc (P1AD9704). As to the kind of experiment: SPR Biacore T200, sample captured by anti-PGLALA, huPD1-ECD-Fc injected; sample stressed 2 w/pH 6.0, +40°C.
In experiment [8] the target is T4, human IL7Rα-IL2Rg-Fc (P1AF4984) (human, UniProt P16871 21-239; P31785 23-262, limits assumed).
T4 construct: In-house heterodimeric Fc fusion; also called IL7Ra-IL2Rg-Fc; human IL7Ralpha-IL2Rgamma-Fc heterodimer; not shown: Fc part
T4 sequence (looked up) 1: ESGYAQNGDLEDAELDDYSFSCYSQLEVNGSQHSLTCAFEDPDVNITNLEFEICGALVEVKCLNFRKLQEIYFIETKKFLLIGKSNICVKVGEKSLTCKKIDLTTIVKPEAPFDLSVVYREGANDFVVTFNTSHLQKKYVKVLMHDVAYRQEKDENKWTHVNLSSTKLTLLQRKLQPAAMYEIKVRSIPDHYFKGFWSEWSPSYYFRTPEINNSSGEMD
T4 sequence (looked up) 2: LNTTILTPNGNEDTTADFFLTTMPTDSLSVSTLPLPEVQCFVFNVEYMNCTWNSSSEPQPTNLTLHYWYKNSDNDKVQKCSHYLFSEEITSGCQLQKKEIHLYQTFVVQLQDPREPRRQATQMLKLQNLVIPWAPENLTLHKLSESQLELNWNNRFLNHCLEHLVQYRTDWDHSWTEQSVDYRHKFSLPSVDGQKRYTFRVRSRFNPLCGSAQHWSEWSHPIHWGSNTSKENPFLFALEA
The experiment is described as follows: SPR Biacore T200, sample captured by anti-PGLALA, IL7Ra-IL2Rg-Fc injected; sample stressed 2 w/pH 7.4 +37°C.

Experiment [9] deals with T4, human IL7Rα-IL2Rg-Fc (P1AF4984). As to the kind of experiment: SPR Biacore T200, sample captured by anti-PGLALA, IL7Ra-IL2Rg-Fc injected; sample stressed 2 w/pH 6.0, +40°C.
In experiment [10] the target is T3, human huPD1-ECD_Fc (P1AD9704). The experiment is described as follows: SPR Biacore T200, sample captured by anti-PGLALA, huPD1-ECD-Fc injected; sample 2 w/pH 6.0, -80°C (reference).
Experiment [11] has as its target T4, human IL7Rα-IL2Rg-Fc (P1AF4984). As to the kind of experiment: SPR Biacore T200, sample captured by anti-PGLALA, IL7Ra-IL2Rg-Fc injected; sample 2 w/pH 6.0, -80°C (reference).

B1: P1AI5585 (PD1-IL7v2.2, fully glycosylated; de-risked PD1 binder FV020519; IL7 D74K, G85K; (G2SG2)3 linker) (other)
light: DIVMTQSPDSLAVSLGERATINCKASESVDTSDNSFIHWYQQKPGQSPKLLIYRASTLESGVPDRFSGSGSGTDFTLTISSLQAEDVAVYYCQQNYDVPWTFGQGTKVEIKRTVAAPSVFIFPPSDEQLKSGTASVVCLLNNFYPREAKVQWKVDNALQSGNSQESVTEQDSKDSTYSLSSTLTLSKADYEKHKVYACEVTHQGLSSPVTKSFNRGEC
heavy 1: EVQLLESGGGLVQPGGSLRLSCAASGFSFSSYTMSWVRQAPGKGLEWVSAISGGGRDIYYPDSVKGRFTISRDNSKNTLYLQMNSLRAEDTAVYYCVLLTGRVYFALDSWGQGTLVTVSSASTKGPSVFPLAPSSKSTSGGTAALGCLVKDYFPEPVTVSWNSGALTSGVHTFPAVLQSSGLYSLSSVVTVPSSSLGTQTYICNVNHKPSNTKVDKKVEPKSCDKTHTCPPCPAPEAAGGPSVFLFPPKPKDTLMISRTPEVTCVVVDVSHEDPEVKFNWYVDGVEVHNAKTKPREEQYNSTYRVVSVLTVLHQDWLNGKEYKCKVSNKALGAPIEKTISKAKGQPREPQVCTLPPSRDELTKNQVSLSCAVKGFYPSDIAVEWESNGQPENNYKTTPPVLDSDGSFFLVSKLTVDKSRWQQGNVFSCSVMHEALHNHYTQKSLSLSPG
heavy 2: EVQLLESGGGLVQPGGSLRLSCAASGFSFSSYTMSWVRQAPGKGLEWVSAISGGGRDIYYPDSVKGRFTISRDNSKNTLYLQMNSLRAEDTAVYYCVLLTGRVYFALDSWGQGTLVTVSSASTKGPSVFPLAPSSKSTSGGTAALGCLVKDYFPEPVTVSWNSGALTSGVHTFPAVLQSSGLYSLSSVVTVPSSSLGTQTYICNVNHKPSNTKVDKKV[sequence of human IgG1 Fc with changes omitted]GGSGGGGSGGGGSGGDCDIEGKDGKQYESVLMVSIDQLLDSMKEIGSNCLNNEFNFFKRHICDANKEGMFLFRAARKLRQFLKMNSTGKFDLHLLKVSEKTTILLNCTGQVKGRKPAALGEAQPTKSLEENKSLKEQKKLNDLCFLKRLLQEIKTCWNKILMGTKEH
notes: Immunoconjugate: anti-PD-1 IgG1 (FV020519), knob-into-hole, PGLALA; IL-7 variant fused to the C-terminus of the knob heavy chain; also called P1AI5585-006 (transient)
B1: the “Potency reduction to PD1-IL7wt: EC50 (PD1+)/EC50 (PD1-IL7wt)” value in experiment [1] turned out to be 24.7 fold. Also, the “STAT-5P AUC, PD1+ CD4 T cells” value in experiment [1] worked out at 49. For the same molecule, the “STAT-5P AUC, PD1-blocked CD4 T cells” value in [1] turned out to be 16.8. Also, in experiment [2], the “Cis-delivery: fold increase in EC50, EC50 [with PD1bl]/EC50 [no PD1bl]” value came out at 48.2 fold. Also, the “Delta AUC (PD1+ vs PD1bl.)” value in experiment [2] is 32.1. Also, the “Potency reduction to PD1-IL7wt: EC50 (PD1+)/EC50 (PD1-IL7wt) (batch P1AI5585-407, stable)” value in [3] was found to be 10 fold. The “Cis-delivery: fold increase in EC50, EC50 [with PD1bl]/EC50 [no PD1bl] (batch P1AI5585-407, stable)” value in experiment [4] turned out to be 120 fold. For the same molecule, the “EC50[active]/EC50 [active PD1-IL7wt] (batch P1AI5585-407)” value in [5] was determined as 15.3 fold. Besides, in [5], the “EC50[fresh]/EC50 [fresh PD1-IL7wt] (batch P1AI5585-407)” value was 3920 fold. Further, the “Relative Active Concentration (RAC), binding relative to the non-stressed sample” value in experiment [6] was 113%; in experiment [7] it was 105%; in [8] it was 104%; in experiment [9], 97%; in experiment [10], 100%; in experiment [11], 100%.

The record behind these values is patent US20250361279A1 (Hoffmann-La Roche, published 2025).
